Measured values: the supplement of paper PMC11876631
± gives the standard deviation of the averaged measurements. Laboratory Escherichia coli strains with one amino-acid change in an essential protein, pooled on minimal glucose agar with carbenicillin or gentamicin at twice the control MIC (plus kanamycin and chloramphenicol for the plasmids), 48 h. Fold change of barcode share against drug-free plates; higher = less susceptible. Active = above 20 in both replicates (the paper's putatively resistant). '<' = one read or none on drug, '>' = one read or none on a drug-free plate. Shares are relative, so most strains fall below 1 when a few take over. Listed are strains with at least 15 reads on both drug-free plates, and hits; most hits rest on fewer reference reads. Replicate rank correlation about 0.5. Edits are read from barcodes.

B1: glyQ L170Q (protein)
chain: MQKFDTRTFQGLILTLQDYWARQGCTIVQPLDMEVGAGTSHPMTCLRELGPEPMAAAYVQPSRRPTDGRYGENPNRLQHYYQFQVVIKPSPDNIQELYLGSLKELGMDPTIHDIRFVEDNWENPTLGAWGLGWEVWLNGMEVTQFTYFQQVGGLECKPVTGEITYGLERQAMYIQGVDSVYDLVWSDGPLGKTTYGDVFHQNEVEQSTYNFEYADVDFLFTCFEQYEKEAQQLLALENPLPLPAYERILKAAHSFNLLDARKAISVTERQRYILRIRTLTKAVAEAYYASREALGFPMCNKDK
B2: glyQ L170P (protein)
chain: MQKFDTRTFQGLILTLQDYWARQGCTIVQPLDMEVGAGTSHPMTCLRELGPEPMAAAYVQPSRRPTDGRYGENPNRLQHYYQFQVVIKPSPDNIQELYLGSLKELGMDPTIHDIRFVEDNWENPTLGAWGLGWEVWLNGMEVTQFTYFQQVGGLECKPVTGEITYGLERPAMYIQGVDSVYDLVWSDGPLGKTTYGDVFHQNEVEQSTYNFEYADVDFLFTCFEQYEKEAQQLLALENPLPLPAYERILKAAHSFNLLDARKAISVTERQRYILRIRTLTKAVAEAYYASREALGFPMCNKDK
B3: gmk F100A (protein)
chain: MAQGTLYIVSAPSGAGKSSLIQALLKTQPLYDTQVSVSHTTRQPRPGEVHGEHYFFVNHDEFKEMISRDAFLEHAEVFGNYYGTSREAIEQVLATGVDVALDIDWQGAQQIRQKMPHARSIFILPPSKIELDRRLRGRGQDSEEVIAKRMAQAVAEMSHYAEYDYLIVNDDFDTALTDLKTIIRAERLRMSRQKQRHDALISKLLAD
B4: gmk L101D (protein)
chain: MAQGTLYIVSAPSGAGKSSLIQALLKTQPLYDTQVSVSHTTRQPRPGEVHGEHYFFVNHDEFKEMISRDAFLEHAEVFGNYYGTSREAIEQVLATGVDVFDDIDWQGAQQIRQKMPHARSIFILPPSKIELDRRLRGRGQDSEEVIAKRMAQAVAEMSHYAEYDYLIVNDDFDTALTDLKTIIRAERLRMSRQKQRHDALISKLLAD
B5: gmk I123A (protein)
chain: MAQGTLYIVSAPSGAGKSSLIQALLKTQPLYDTQVSVSHTTRQPRPGEVHGEHYFFVNHDEFKEMISRDAFLEHAEVFGNYYGTSREAIEQVLATGVDVFLDIDWQGAQQIRQKMPHARSIFALPPSKIELDRRLRGRGQDSEEVIAKRMAQAVAEMSHYAEYDYLIVNDDFDTALTDLKTIIRAERLRMSRQKQRHDALISKLLAD
B6: gmk L124D (protein)
chain: MAQGTLYIVSAPSGAGKSSLIQALLKTQPLYDTQVSVSHTTRQPRPGEVHGEHYFFVNHDEFKEMISRDAFLEHAEVFGNYYGTSREAIEQVLATGVDVFLDIDWQGAQQIRQKMPHARSIFIDPPSKIELDRRLRGRGQDSEEVIAKRMAQAVAEMSHYAEYDYLIVNDDFDTALTDLKTIIRAERLRMSRQKQRHDALISKLLAD
B7: gmk F100Q (protein)
chain: MAQGTLYIVSAPSGAGKSSLIQALLKTQPLYDTQVSVSHTTRQPRPGEVHGEHYFFVNHDEFKEMISRDAFLEHAEVFGNYYGTSREAIEQVLATGVDVQLDIDWQGAQQIRQKMPHARSIFILPPSKIELDRRLRGRGQDSEEVIAKRMAQAVAEMSHYAEYDYLIVNDDFDTALTDLKTIIRAERLRMSRQKQRHDALISKLLAD
B8: gmk L124A (protein)
chain: MAQGTLYIVSAPSGAGKSSLIQALLKTQPLYDTQVSVSHTTRQPRPGEVHGEHYFFVNHDEFKEMISRDAFLEHAEVFGNYYGTSREAIEQVLATGVDVFLDIDWQGAQQIRQKMPHARSIFIAPPSKIELDRRLRGRGQDSEEVIAKRMAQAVAEMSHYAEYDYLIVNDDFDTALTDLKTIIRAERLRMSRQKQRHDALISKLLAD
B9: gmk F122Q (protein)
chain: MAQGTLYIVSAPSGAGKSSLIQALLKTQPLYDTQVSVSHTTRQPRPGEVHGEHYFFVNHDEFKEMISRDAFLEHAEVFGNYYGTSREAIEQVLATGVDVFLDIDWQGAQQIRQKMPHARSIQILPPSKIELDRRLRGRGQDSEEVIAKRMAQAVAEMSHYAEYDYLIVNDDFDTALTDLKTIIRAERLRMSRQKQRHDALISKLLAD
B10: gmk L124W (protein)
chain: MAQGTLYIVSAPSGAGKSSLIQALLKTQPLYDTQVSVSHTTRQPRPGEVHGEHYFFVNHDEFKEMISRDAFLEHAEVFGNYYGTSREAIEQVLATGVDVFLDIDWQGAQQIRQKMPHARSIFIWPPSKIELDRRLRGRGQDSEEVIAKRMAQAVAEMSHYAEYDYLIVNDDFDTALTDLKTIIRAERLRMSRQKQRHDALISKLLAD
B11: gmk L24A (protein)
chain: MAQGTLYIVSAPSGAGKSSLIQAALKTQPLYDTQVSVSHTTRQPRPGEVHGEHYFFVNHDEFKEMISRDAFLEHAEVFGNYYGTSREAIEQVLATGVDVFLDIDWQGAQQIRQKMPHARSIFILPPSKIELDRRLRGRGQDSEEVIAKRMAQAVAEMSHYAEYDYLIVNDDFDTALTDLKTIIRAERLRMSRQKQRHDALISKLLAD
B12: gmk F100W (protein)
chain: MAQGTLYIVSAPSGAGKSSLIQALLKTQPLYDTQVSVSHTTRQPRPGEVHGEHYFFVNHDEFKEMISRDAFLEHAEVFGNYYGTSREAIEQVLATGVDVWLDIDWQGAQQIRQKMPHARSIFILPPSKIELDRRLRGRGQDSEEVIAKRMAQAVAEMSHYAEYDYLIVNDDFDTALTDLKTIIRAERLRMSRQKQRHDALISKLLAD
B13: gmk L101A (protein)
chain: MAQGTLYIVSAPSGAGKSSLIQALLKTQPLYDTQVSVSHTTRQPRPGEVHGEHYFFVNHDEFKEMISRDAFLEHAEVFGNYYGTSREAIEQVLATGVDVFADIDWQGAQQIRQKMPHARSIFILPPSKIELDRRLRGRGQDSEEVIAKRMAQAVAEMSHYAEYDYLIVNDDFDTALTDLKTIIRAERLRMSRQKQRHDALISKLLAD
B14: gmk F122A (protein)
chain: MAQGTLYIVSAPSGAGKSSLIQALLKTQPLYDTQVSVSHTTRQPRPGEVHGEHYFFVNHDEFKEMISRDAFLEHAEVFGNYYGTSREAIEQVLATGVDVFLDIDWQGAQQIRQKMPHARSIAILPPSKIELDRRLRGRGQDSEEVIAKRMAQAVAEMSHYAEYDYLIVNDDFDTALTDLKTIIRAERLRMSRQKQRHDALISKLLAD
B15: gmk L101Q (protein)
chain: MAQGTLYIVSAPSGAGKSSLIQALLKTQPLYDTQVSVSHTTRQPRPGEVHGEHYFFVNHDEFKEMISRDAFLEHAEVFGNYYGTSREAIEQVLATGVDVFQDIDWQGAQQIRQKMPHARSIFILPPSKIELDRRLRGRGQDSEEVIAKRMAQAVAEMSHYAEYDYLIVNDDFDTALTDLKTIIRAERLRMSRQKQRHDALISKLLAD
B16: gmk F122W (protein)
chain: MAQGTLYIVSAPSGAGKSSLIQALLKTQPLYDTQVSVSHTTRQPRPGEVHGEHYFFVNHDEFKEMISRDAFLEHAEVFGNYYGTSREAIEQVLATGVDVFLDIDWQGAQQIRQKMPHARSIWILPPSKIELDRRLRGRGQDSEEVIAKRMAQAVAEMSHYAEYDYLIVNDDFDTALTDLKTIIRAERLRMSRQKQRHDALISKLLAD
B17: gmk L124Q (protein)
chain: MAQGTLYIVSAPSGAGKSSLIQALLKTQPLYDTQVSVSHTTRQPRPGEVHGEHYFFVNHDEFKEMISRDAFLEHAEVFGNYYGTSREAIEQVLATGVDVFLDIDWQGAQQIRQKMPHARSIFIQPPSKIELDRRLRGRGQDSEEVIAKRMAQAVAEMSHYAEYDYLIVNDDFDTALTDLKTIIRAERLRMSRQKQRHDALISKLLAD
B18: accA V195Q (protein)
chain: MSLNFLDFEQPIAELEAKIDSLTAVSRQDEKLDINIDEEVHRLREKSVELTRKIFADLGAWQIAQLARHPQRPYTLDYVRLAFDEFDELAGDRAYADDKAIVGGIARLDGRPVMIIGHQKGRETKEKIRRNFGMPAPEGYRKALRLMQMAERFKMPIITFIDTPGAYPGVGAEERGQSEAIARNLREMSRLGVPQVCTVIGEGGSGGALAIGVGDKVNMLQYSTYSVISPEGCASILWKSADKAPLAAEAMGIIAPRLKELKLIDSIIPEPLGGAHRNPEAMAASLKAQLLADLADLDVLSTEDLKNRRYQRLMSYGYA

What follows are proteins tested against Escherichia coli (laboratory strain) (assay: barcode share on antibiotic plates over drug-free plates; higher = less susceptible). Settings: antibiotic: carbenicillin; 2× MIC (3.1 µg/mL).
Protocol: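 A pool of E. coli strains, each edited to carry one amino-acid change in an essential protein, was grown for 48 h on minimal glucose agar with or without antibiotic; strain barcodes were sequenced; mean of two replicates.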
B1 was tested, and the “fold change of barcode share” value was 0.476 ± 0.22. With B2 the “fold change of barcode share” value was 0.386 ± 0.01. In the case of B3, the “fold change of barcode share” value is reported as 0.219 ± 0.031. With B4 the “fold change of barcode share” value was 0.356 ± 0.044. For B5, the “fold change of barcode share” value was 0.34 ± 0.034. B6 was tested, and the “fold change of barcode share” value was 0.413 ± 0.081. For B7, the “fold change of barcode share” value was 0.345 ± 0.19. For B8, the “fold change of barcode share” value was 0.213 ± 0.11. For B9, the “fold change of barcode share” value was 0.237 ± 0.048. B10 was tested, and the “fold change of barcode share” value was 0.24623 ± 0.00017. With B11 the “fold change of barcode share” value was 0.251 ± 0.041. B12 was tested, and the “fold change of barcode share” value was 0.361 ± 0.21. For B13, the “fold change of barcode share” value was 0.339 ± 0.05. With B14 the “fold change of barcode share” value was 0.22 ± 0.022. For B15, the “fold change of barcode share” value was 0.276 ± 0.071. With B16 the “fold change of barcode share” value was 0.194 ± 0.048. B17 was tested, and the “fold change of barcode share” value was 0.17 ± 0.098. With B18 the “fold change of barcode share” value was 0.348 ± 0.18.

Same assay, conditions: antibiotic: gentamicin; 2× MIC (MIC 0.45 µg/mL)
For B1, the “fold change of barcode share” value was 0.0192 ± 0.023. With B2 the “fold change of barcode share” value was under 0.00696. B3 was tested, and the “fold change of barcode share” value was 0.00453 ± 0.003. For B4, the “fold change of barcode share” value was 0.0138 ± 0.0038. B5 was tested, and the “fold change of barcode share” value was 0.031 ± 0.031. B7 was tested, and the “fold change of barcode share” value was under 0.00697. For B9, the “fold change of barcode share” value was under 0.00753. B11 was tested, and the “fold change of barcode share” value was under 0.0153. For B12, the “fold change of barcode share” value was 0.00721 ± 0.0056. With B13 the “fold change of barcode share” value was under 0.00971. For B14, the “fold change of barcode share” value was under 0.00736. In the case of B15, the “fold change of barcode share” value is reported as 0.0116 ± 0.0094. With B18 the “fold change of barcode share” value was 0.0116 ± 0.013.
